Results from PubChem BioAssay (NCATS).
Several values for one entry are separate records, joined by “and”; a condition that tells them apart may be missing. Equal entries are not always repeated. The shares of active, inactive and inconclusive entries below differ from those in the screen. Potencies of inconclusive entries are doubtful fits and often do not repeat. “Side channel” marks fits to a control or component signal instead of the main read-out. Activity calls are given as the source filed them. Calls follow the shape of the dose curve; as a rule, active = well fitted inhibition curve with a large enough effect in the signal ratio, with a control signal flat (not every such curve was filed as active); inconclusive = small, poorly fitted or top-dose-only effect, or effect the other way, or a change in a side signal; inactive = flat fitted curve, though single readings scatter; the % refers to the signal ratio.
% is scaled to controls: 0 for no effect and ±100 for the full control effect; potency is read from the fitted curve at half-maximal effect; tags tell the direction and shape of the fitted curve or compound fluorescence and quenching.

Test: qHTS Assay for Identification of Small Molecule Antagonists for NFkB Signaling Pathway (AID 895)
Conditions: NFkB beta-lactamase reporter cells, FRET ratio 460/530; activity change, negative = inhibition: at 38.3 µM (top of the series) unless noted
Procedure: NIH Molecular Libraries Screening Centers Network [MLSCN]
NIH Chemical Genomics Center [NCGC]
The TNF alpha/NFkB signaling pathway was assayed in NFkB-bla cells (Invitrogen), a ME-180 cervical carcinoma line containing a stably integrated beta-lactamase reporter gene controlled by a NFkB response element. […] The assay was screened at the EC50 of TNF alpha activation to identify inhibitors of TNF alpha/NFkB signaling.
NCGC Assay Protocol Summary:
Cells were trypsinized, washed in assay medium (AM, OPTI MEM with 0.5% fetal bovine serum, 0.1 mM nonessential amino acids, 1 mM sodium pyruvate, 10mM HEPES pH 7.3, 100U/ml penicillin, and 100 ug/ml streptomycin) and plated at 1000 cells/5 uL/well into black clear-bottom 1536 well plates. After an overnight incubation at 37 C and 5% CO2, 23 nL of compound were delivered by a pin tool, 1 uL of TNF alpha (10 pM final concentration in AM) was added and plates were incubated at 37 C for 5 hrs. One uL of LiveBLAzerTM detector mix (Invitrogen) was added, the plates incubated at room temperature for 2 hrs, and fluorescence intensity at 460 and 530 nm emission was measured at 405 nm excitation by an Envision (Perkin Elmer).
With CC(=O)c1c(O)c(C)c(O)c(Cc2c(O)c3c(c(C(=O)/C=C\c4ccccc4)c2O)OC(C)(C)C=C3)c1O the Potency was active: 0.794 µM. With C[C@H](N)Cc1c[nH]c2ccc(O)cc12 the Potency was inconclusive: 0.355 µM [inhibitor, full curve, poor fit]. In the case of O=P(O)(O)C(Cl)(Cl)P(=O)(O)O, the Potency is reported as “inactive”. For O=[N+]([O-])c1cc(O)c(O)c([N+](=O)[O-])c1, the Potency was “inactive”. For CNCCc1ccc(O)c(O)c1, the Potency was inconclusive: 2.24 µM [inhibitor, full curve, poor fit]. With NNCc1cccc(O)c1 the Potency was inconclusive: 141 nM [inhibitor, full curve, poor fit] [stimulated with 10 pM TNF alpha]. For C[C@]12Cc3cn4c(nc3C=C1CC[C@H]1[C@@H]2CC[C@@]2(C)[C@H]1CC[C@@]2(O)C#N)nc1ccccc14, the Potency was inconclusive: 1.41 µM [activator, full curve, poor fit]. With COc1ccc(CCN)cc1O the Potency was inconclusive: 0.0035 µM [inhibitor, full curve, poor fit]. For c1ccc2c(N3CCNCC3)cccc2c1, the Potency was inconclusive: 11.2 µM [inhibitor, single point]. With CC(=O)OCC1=C(C(=O)[O-])N2C(=O)[C@@H](NC(=O)CCC[C@@H](N)C(=O)[O-])[C@@H]2SC1.[Zn+2] the Potency was “inactive”. In the case of NCCc1c[nH]c2ccc(O)cc12, the Potency is reported as “inactive”. For CN(C(=O)Cc1ccc(Cl)c(Cl)c1)[C@@H](CN1CCCC1)c1cccc(OCC(=O)O)c1, the activity change, negative = inhibition was inconclusive: 11.7%. With COC(=O)c1cc2c(cn1)[nH]c1ccccc12 the Potency was “inactive”. In the case of C[C@H](N)CN1CCc2ccc(Br)cc21, the Potency is reported as inconclusive: 6.31 µM [inhibitor, partial curve]. For COc1ccc2[nH]cc(CCN)c2c1, the Potency was inconclusive: 5.01 µM [side channel, rising, single point]. For CCN1C[C@]2(C)CC[C@@H](O)[C@]34[C@@H]5CC6[C@@H](OC)C[C@@](O)([C@H]5[C@@H]6O)[C@@H](C[C@@H]23)[C@H]14, the Potency was “inactive”. For CCN(CC)c1ncnc2c1ncn2[C@@H]1O[C@@H](COP(=O)(O)OP(=O)(O)C(Br)(Br)P(=O)(O)O)[C@H](O)[C@@H]1O, the activity change, negative = inhibition was inconclusive: 43.3% [at 38.3 µM, stimulated with 10 pM TNF alpha]. With N[C@H](CCCCCP(=O)(O)O)C(=O)O the activity change, negative = inhibition was inconclusive: -4.65% and inconclusive: 4.36%. In the case of CCCCCCCCCCCCCC(=O)O[C@H]1[C@@H](C)[C@@]2(O)[C@@H](C=C(CO)C[C@]3(O)C(=O)C(C)=C[C@@H]23)C2C(C)(C)[C@]21OC(C)=O (stereo not given in full), the Potency is reported as inconclusive: 0.01 µM [side channel, falling, full curve]. In the case of C[C@@H](Cc1ccc(OCC(=O)O)cc1)NC[C@H](O)c1cccc(Cl)c1, the activity change, negative = inhibition is reported as inconclusive: -28.9% [at 38.3 µM, stimulated with 10 pM TNF alpha]. In the case of CCCN1CCC[C@H](c2cccc(C#N)c2)C1, the Potency is reported as inconclusive: 11.2 µM [activator, single point] [stimulated with 10 pM TNF alpha]. For COC(=O)[C@H](N)CCCN=C(N)N[N+](=O)[O-], the Potency was “inactive”. For C[C@@H]1O[C@H](C[N+](C)(C)C)CS1, the activity change, negative = inhibition was inconclusive: 5.06%. With CC[C@@H](CO)Nc1nc(NCc2ccccc2)c2ncn(C(C)C)c2n1 the Potency was inconclusive: 11.2 µM [side channel, rising, single point] [stimulated with 10 pM TNF alpha]. For O=[N+]([O-])c1ccc2nc(N3CCNCC3)ccc2c1, the activity change, negative = inhibition was inconclusive: 0.804%. For CC(C)N(CC[C@@](C(N)=O)(c1ccccc1)c1ccccn1)C(C)C, the Potency was “inactive”. For CC(=O)N1CCN(c2ccc(OC[C@H]3CO[C@](Cn4ccnc4)(c4ccc(Cl)cc4Cl)O3)cc2)CC1, the Potency was inconclusive: 5.62 µM [cytotoxic, side channel, partial curve]. For CCCN(CCC)[C@H]1CCc2c(F)ccc(O)c2C1, the activity change, negative = inhibition was inconclusive: 5.45% and inconclusive: 0.33%. In the case of C[N+](C)(C)CC#CCN1CCCC1=O, the Potency is reported as inconclusive: 28.2 µM [inhibitor, single point]. With Oc1ccc2c3c1O[C@H]1c4oc5ccccc5c4C[C@]4(O)[C@H](C2)N(CC2CC2)CC[C@@]314 the activity change, negative = inhibition was inconclusive: -40.1%. For CCCN1CCO[C@@H]2c3cc(O)ccc3OC[C@H]21, the activity change, negative = inhibition was inconclusive: 26.1%. For CCCN(CCC)CCc1ccc(O)c(O)c1, the Potency was inconclusive: 7.94 µM [inhibitor, partial curve, poor fit]. In the case of Oc1cc2c(cc1O)[C@H]1c3ccccc3CN[C@@H]1CC2, the Potency is reported as active: 6.31 µM. In the case of C[C@@H](Cc1ccc2c(c1)OC(C(=O)O)(C(=O)O)O2)NC[C@H](O)c1cccc(Cl)c1, the Potency is reported as inconclusive: 199 nM [activator, full curve] [stimulated with 10 pM TNF alpha]. For NC(=O)c1cc(N2CC2)c([N+](=O)[O-])cc1[N+](=O)[O-], the Potency was “inactive”. For CO[C@@H]1CC=C2CCN3CCC4=C(CC(=O)OC4)[C@]23C1, the activity change, negative = inhibition was inconclusive: 36.7% [at 38.3 µM, stimulated with 10 pM TNF alpha]. With C=CCN1CC[C@@]23c4c5ccc(O)c4O[C@H]2/C(=N\N=C2/CC[C@@]4(O)[C@H]6Cc7ccc(O)c8c7[C@@]4(CCN6CC=C)[C@@H]2O8)CC[C@]3(O)[C@@H]1C5 the Potency was “inactive”. For O=C(O)Cc1cnc[nH]1, the Potency was inconclusive: 0.398 µM [activator, single point]. For NC(N)=NOCC[C@H](N)C(=O)O, the activity change, negative = inhibition was inconclusive: -33.8%.

Same assay, conditions: NFkB beta-lactamase reporter cells, FRET ratio 460/530; at 38.3 µM (top of the series)
For CCCN1CCO[C@@H]2c3cc(O)ccc3OC[C@H]21, the activity change, negative = inhibition was inactive: -8.19%.
